# Reference: a collection of fitness landscapes (doi:10.1016/j.celrep.2020.107928)
# The full ranking holds about 81,000 sequences; the median of “one-hybrid fitness for binding NBS DNA” is about -0.1, and the highest 2% start at about 0.36. This is one part of the list.
# B1: Caulobacter ParB omega fusion; a variant is named by its letters at X, in order, B8GW30 (parent)
# chain: MESVVVGEPGMSEGRRGLGRGLSALLGEVDAAPAQAPGEQLGGSREAPIEILQRNPDQPRRTFREEDLEDLSNSIREKGVLQPILVRPSPDTAGEYQIVAGERAWRAAQRAGLKTVPIMVRELDDLAVLEIGIIENVQRADLNVLEEALSYKVLMEKFERTQENIAQTIGKSXSHVANXMRLLXLPDEVQSYLVSGELTAXHARAIAAAADPVALAKQIIEGGLSVRETEALARKAPNLSAGKSKGGRPPRVKDTDTQALESDLSSVLGLDVSIDHRGSTGTLTITYATLEQLDDLCNRLTRGI
# Variants of: B1
# Assay: one-hybrid fitness for binding NBS DNA (the Noc-binding site; scaled: cognate 1, non-cognate 0); higher = stronger binding
# Conditions: with NBS DNA site
# In short: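 Fitness here means the log change in variant-to-wild-type read ratio between plasmids sequenced before and after selection. That scale was set so cognate equals 1 and non-cognate equals 0. The selection was a bacterial one-hybrid screen of Caulobacter ParB libraries, four specificity codons randomised, in E. coli USO carrying a HIS3 reporter with the site 19 bp from the promoter, grown 48 hours at 37°C on M9-minus-histidine with 0.1 mM IPTG and 5 mM 3-AT.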
row,Variant,one-hybrid fitness for binding NBS DNA
1,GYRT,≤ 0.2
2,TNVG,≤ 0.2
3,YNSL,≤ 0.2
4,THWS,≤ 0.2
5,RTFV,≤ 0.2
6,THFG,≤ 0.2
7,HAQW,≤ 0.2
8,AFRG,≤ 0.2
9,AKCD,≤ 0.2
10,FALR,≤ 0.2
11,MFRR,≤ 0.2
12,SETG,≤ 0.2
13,TEPH,≤ 0.2
14,SMQR,≤ 0.2
15,CTVS,≤ 0.2
16,TWQG,≤ 0.2
17,NWPG,≤ 0.2
18,PYAK,≤ 0.2
19,AVPR,≤ 0.2
20,PMMT,≤ 0.2
21,NPGC,≤ 0.2
22,AARP,≤ 0.2
23,VQPT,≤ 0.2
24,FICR,≤ 0.2

row,Variant,one-hybrid fitness for binding NBS DNA
1,NDQT,≤ 0.2
2,TYAC,≤ 0.2
3,LLGS,≤ 0.2
4,SENV,≤ 0.2
5,SDWM,≤ 0.2
6,MYRF,≤ 0.2
7,HYSG,≤ 0.2
8,VNLE,≤ 0.2
9,LLWK,≤ 0.2
10,DTHA,≤ 0.2
11,VMNA,≤ 0.2
12,LLMY,≤ 0.2
13,EGQC,≤ 0.2
14,ACRN,≤ 0.2
15,RAQR,0.43
16,QTCG,≤ 0.2
17,LKIC,≤ 0.2
18,PRQT,≤ 0.2
19,YCYF,≤ 0.2
20,QSED,≤ 0.2
21,KDTC,≤ 0.2
22,TPSC,≤ 0.2
23,NGGV,≤ 0.2
24,INLG,≤ 0.2

row,Variant,one-hybrid fitness for binding NBS DNA
1,IKEV,≤ 0.2
2,TFYF,≤ 0.2
3,MHIY,≤ 0.2
4,CTAF,≤ 0.2
5,ILVY,≤ 0.2
6,KLVV,≤ 0.2
7,NHFR,≤ 0.2
8,CRSG,≤ 0.2
9,DLMH,≤ 0.2
10,TCYV,≤ 0.2
11,AVRL,≤ 0.2
12,AYVC,≤ 0.2
13,HGQT,≤ 0.2
14,SSFE,≤ 0.2
15,RPWS,≤ 0.2
16,WANC,≤ 0.2
17,KARE,≤ 0.2
18,KTTE,≤ 0.2
19,TNQE,≤ 0.2
20,PRQY,≤ 0.2
21,VTQC,≤ 0.2
22,GASD,≤ 0.2
23,NYHY,≤ 0.2
24,QPWC,≤ 0.2

row,Variant,one-hybrid fitness for binding NBS DNA
1,VHST,≤ 0.2
2,LSEG,≤ 0.2
3,MCAT,≤ 0.2
4,YLIL,≤ 0.2
5,RFPN,≤ 0.2
6,ISWC,≤ 0.2
7,TSNR,≤ 0.2
8,KRKL,≤ 0.2
9,TIHS,≤ 0.2
10,APSK,≤ 0.2
11,QANT,0.462
12,GRFE,≤ 0.2
13,IHLR,≤ 0.2
14,PGLY,≤ 0.2
15,QRDL,≤ 0.2
16,EHRN,≤ 0.2
17,FSSC,≤ 0.2
18,KCGN,≤ 0.2
19,TPTC,≤ 0.2
20,CEVR,≤ 0.2
21,DPTR,≤ 0.2
22,RTKL,≤ 0.2
23,KMAC,≤ 0.2
24,AKQT,≤ 0.2

row,Variant,one-hybrid fitness for binding NBS DNA
1,SAAE,≤ 0.2
2,VIPW,≤ 0.2
3,AMHV,≤ 0.2
4,RPYS,≤ 0.2
5,EKYG,≤ 0.2
6,IYES,≤ 0.2
7,DSYR,≤ 0.2
8,PIMM,≤ 0.2
9,VSIG,≤ 0.2
10,KSAW,≤ 0.2
11,WRRC,≤ 0.2
12,WRYG,≤ 0.2
13,SKSK,≤ 0.2
14,VKGM,≤ 0.2
15,MCTT,≤ 0.2
16,GTLT,≤ 0.2
17,NTTY,≤ 0.2
18,DHHC,≤ 0.2
19,VHHS,≤ 0.2
20,YVGG,≤ 0.2
21,THSP,≤ 0.2
22,FRHS,≤ 0.2
23,QLKL,≤ 0.2
24,IDGG,≤ 0.2

row,Variant,one-hybrid fitness for binding NBS DNA
1,ELMC,≤ 0.2
2,VTGF,≤ 0.2
3,WLVC,≤ 0.2
4,RIST,0.398
5,SLCS,≤ 0.2
6,VGYK,≤ 0.2
7,SHSN,≤ 0.2
8,AEML,≤ 0.2
9,LRES,≤ 0.2
10,WYIT,≤ 0.2
11,FGKV,≤ 0.2
12,YIWR,≤ 0.2
13,RMES,≤ 0.2
14,QVIT,≤ 0.2
15,CRAT,≤ 0.2
16,EIRF,≤ 0.2
17,IMVG,≤ 0.2
18,MSNA,≤ 0.2
19,QPVD,≤ 0.2
20,VGLI,≤ 0.2
21,LRWY,≤ 0.2
22,LSSD,≤ 0.2
23,TMCG,≤ 0.2
24,FRLG,≤ 0.2

row,Variant,one-hybrid fitness for binding NBS DNA
1,IDQR,≤ 0.2
2,LLVL,≤ 0.2
3,VMES,≤ 0.2
4,VPEG,≤ 0.2
5,GSLF,≤ 0.2
6,PTYQ,≤ 0.2
7,TSGI,≤ 0.2
8,IANN,≤ 0.2
9,VMSC,≤ 0.2
10,IHSC,≤ 0.2
11,DCWS,≤ 0.2
12,PIPD,≤ 0.2
13,DIAV,≤ 0.2
14,MRHF,≤ 0.2
15,KDLS,≤ 0.2
16,HPGQ,≤ 0.2
17,KFLG,≤ 0.2
18,IMER,≤ 0.2
19,GDIY,≤ 0.2
20,PLAV,≤ 0.2
21,GQYL,≤ 0.2
22,MAAI,≤ 0.2
23,QSFV,≤ 0.2
24,CCGT,≤ 0.2

row,Variant,one-hybrid fitness for binding NBS DNA
1,TGCD,≤ 0.2
2,EWLR,≤ 0.2
3,KKCN,≤ 0.2
4,FVWC,≤ 0.2
5,PNAD,≤ 0.2
6,THAS,≤ 0.2
7,TTVI,≤ 0.2
8,CCVE,≤ 0.2
9,MICR,≤ 0.2
10,HSDM,≤ 0.2
11,THHC,≤ 0.2
12,LDQT,≤ 0.2
13,MTHS,≤ 0.2
14,PWAC,≤ 0.2
15,WDNS,≤ 0.2
16,WSAS,≤ 0.2
17,YPIL,≤ 0.2
18,LQGG,≤ 0.2
19,KFAG,≤ 0.2
20,ADFT,≤ 0.2
21,ADSC,≤ 0.2
22,PASR,≤ 0.2
23,GPTG,≤ 0.2
24,SPWA,≤ 0.2

row,Variant,one-hybrid fitness for binding NBS DNA
1,CANS,≤ 0.2
2,GREE,≤ 0.2
3,WTYR,≤ 0.2
4,HSYK,≤ 0.2
5,DGYR,≤ 0.2
6,KKNY,≤ 0.2
7,PWNF,≤ 0.2
8,ARPK,≤ 0.2
9,MIHS,≤ 0.2
10,RVQS,0.357
11,FLYK,≤ 0.2
12,RHNS,0.505
13,TFTP,≤ 0.2
14,LRIC,≤ 0.2
15,TTRW,≤ 0.2
16,TRIY,≤ 0.2
17,HIWM,≤ 0.2
18,TNLS,≤ 0.2
19,SYWD,≤ 0.2
20,HMAW,≤ 0.2
21,RSNL,≤ 0.2
22,YLTM,≤ 0.2
23,HLQV,≤ 0.2
24,RPLS,≤ 0.2

row,Variant,one-hybrid fitness for binding NBS DNA
1,VSSE,≤ 0.2
2,WSGG,≤ 0.2
3,RLVA,≤ 0.2
4,DFAM,≤ 0.2
5,TCNC,≤ 0.2
6,YLAL,≤ 0.2
7,PGRR,≤ 0.2
8,HVYV,≤ 0.2
9,VEDG,≤ 0.2
10,YTAC,≤ 0.2
11,MVHQ,≤ 0.2
12,DCRA,≤ 0.2
13,AGHR,≤ 0.2
14,TVKI,≤ 0.2
15,NVIR,≤ 0.2
16,CSQW,≤ 0.2
17,RSYD,≤ 0.2
18,YPKG,≤ 0.2
19,YPTI,≤ 0.2
20,RTAW,≤ 0.2
21,SRES,≤ 0.2
22,EFET,≤ 0.2
23,RIQY,≤ 0.2
24,EQYC,≤ 0.2

row,Variant,one-hybrid fitness for binding NBS DNA
1,RHEN,≤ 0.2
2,QLGC,≤ 0.2
3,ARGA,≤ 0.2
4,LYND,≤ 0.2
5,GLWS,≤ 0.2
6,EHCR,≤ 0.2
7,RGEW,≤ 0.2
8,VKKV,≤ 0.2
9,GTPT,≤ 0.2
10,PQTK,≤ 0.2
11,VAGG,≤ 0.2
12,PLER,≤ 0.2
13,QHCW,≤ 0.2
14,TYEN,≤ 0.2
15,RNVM,≤ 0.2
16,GSGL,≤ 0.2
17,GGNS,≤ 0.2
18,QTYM,≤ 0.2
19,RCDM,≤ 0.2
20,LMWA,≤ 0.2
21,PLWI,≤ 0.2
22,TTHS,≤ 0.2
23,RCNE,≤ 0.2
24,SSLQ,≤ 0.2

row,Variant,one-hybrid fitness for binding NBS DNA
1,ANRI,≤ 0.2
2,RESI,≤ 0.2
3,QVLL,≤ 0.2
4,KMVW,≤ 0.2
5,VKVV,≤ 0.2
6,AFKT,≤ 0.2
7,SVQY,≤ 0.2
8,CCTL,≤ 0.2
9,DTLL,≤ 0.2
10,HNFD,≤ 0.2
11,QRHY,0.553
12,WLHC,≤ 0.2
13,RFTC,≤ 0.2
14,CSFS,≤ 0.2
15,RGEC,≤ 0.2
16,RCDQ,≤ 0.2
17,DGSC,≤ 0.2
18,SMNH,≤ 0.2
19,FNSK,≤ 0.2
20,VQSS,≤ 0.2
21,LMTA,≤ 0.2
22,QKPF,≤ 0.2
23,QTLS,0.426
24,CYMA,≤ 0.2

row,Variant,one-hybrid fitness for binding NBS DNA
1,PETV,≤ 0.2
2,DNWY,≤ 0.2
3,VKMF,≤ 0.2
4,EKPG,≤ 0.2
5,KLMQ,≤ 0.2
6,ACTE,≤ 0.2
7,RFRA,≤ 0.2
8,AVAF,≤ 0.2
9,PKDG,≤ 0.2
10,TWKS,≤ 0.2
11,AMSL,≤ 0.2
12,TEYS,≤ 0.2
13,CQGR,≤ 0.2
14,PYRG,≤ 0.2
15,YLKD,≤ 0.2
16,CLRH,≤ 0.2
17,VVWG,≤ 0.2
18,HGQC,≤ 0.2
